Data on 53 compounds can be found in PMC4336329 (PLoS ONE, 2015).

Among all 310,000 compounds or so, about 14,000 (4.5%) showed an effect of 50% or more. Effects have a minus sign here. This is one part of the list.
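Also: peak tail current of the secondary pulse compared with the same well before compound.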

For the test, the target named is human ether-à-go-go-related gene (hERG) potassium channel (human, UniProt Q12809). As to the kind of experiment: primary screen, population patch clamp on CHO cells stably expressing hERG.
Chain of human ether-à-go-go-related gene (hERG) potassium channel (Q12809 whole entry, looked up): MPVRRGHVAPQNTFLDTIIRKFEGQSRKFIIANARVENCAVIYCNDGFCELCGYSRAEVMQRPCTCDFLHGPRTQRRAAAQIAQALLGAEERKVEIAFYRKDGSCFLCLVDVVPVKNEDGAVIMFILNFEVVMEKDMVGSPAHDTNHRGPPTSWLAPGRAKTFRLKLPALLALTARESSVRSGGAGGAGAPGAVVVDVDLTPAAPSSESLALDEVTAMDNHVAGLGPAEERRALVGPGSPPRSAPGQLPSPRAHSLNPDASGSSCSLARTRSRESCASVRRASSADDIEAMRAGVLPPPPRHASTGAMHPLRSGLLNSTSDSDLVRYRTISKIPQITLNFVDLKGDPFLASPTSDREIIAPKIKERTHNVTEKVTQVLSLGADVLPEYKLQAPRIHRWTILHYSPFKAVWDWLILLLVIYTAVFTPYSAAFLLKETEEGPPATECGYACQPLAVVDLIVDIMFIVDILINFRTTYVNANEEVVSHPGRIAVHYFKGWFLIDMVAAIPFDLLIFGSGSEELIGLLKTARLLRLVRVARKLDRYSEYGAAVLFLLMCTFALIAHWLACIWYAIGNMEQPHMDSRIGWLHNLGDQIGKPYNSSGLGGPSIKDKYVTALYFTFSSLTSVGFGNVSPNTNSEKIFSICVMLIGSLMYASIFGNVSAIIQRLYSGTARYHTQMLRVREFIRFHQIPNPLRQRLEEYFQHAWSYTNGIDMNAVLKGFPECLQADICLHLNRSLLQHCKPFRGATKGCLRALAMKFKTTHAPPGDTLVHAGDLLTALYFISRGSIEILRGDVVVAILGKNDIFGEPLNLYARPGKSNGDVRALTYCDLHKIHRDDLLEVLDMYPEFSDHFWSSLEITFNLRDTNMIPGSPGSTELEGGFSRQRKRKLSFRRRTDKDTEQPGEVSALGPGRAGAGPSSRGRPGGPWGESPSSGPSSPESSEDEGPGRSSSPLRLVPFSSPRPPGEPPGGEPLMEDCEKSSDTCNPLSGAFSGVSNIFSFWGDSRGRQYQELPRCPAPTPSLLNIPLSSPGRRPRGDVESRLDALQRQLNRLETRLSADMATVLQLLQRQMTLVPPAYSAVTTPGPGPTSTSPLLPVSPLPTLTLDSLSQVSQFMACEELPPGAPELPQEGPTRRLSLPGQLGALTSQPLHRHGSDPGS
Regarding `COC(=O)C1=C(c2ccc(F)cc2OCc2ccccc2)C[C@@H]2CC[C@H]1N2C(=O)NCc1ccc(OC)cc1`, the “hERG current change (%, negative = inhibition) at 10uM” value amounted to 7.82%.
For the compound `CCOc1ccc(-c2c(C(=O)N/N=C(\C)c3cccnc3)nnn2-c2nonc2N)cc1`, the “hERG current change (%, negative = inhibition) at 10uM” value came to 21.7%.
On to `Cc1cccc(N2CCN(C(=O)c3ccc(Cl)c(NC4=NC5CS(=O)(=O)CC5S4)c3)CC2C)c1` (centres unmarked), for which the “hERG current change (%, negative = inhibition) at 10uM” value is on record as 10.4%.
For the compound `CCOC(=O)c1ccc(COc2nc3ccccc3nc2-c2ccccc2NC(C)=O)o1`, the “hERG current change (%, negative = inhibition) at 10uM” value came to 12.8%.
`O=C(CCN1C(=O)C2C3C=CC(C3)C2C1=O)Nc1ccc2ncccc2c1` (centres unmarked): the “hERG current change (%, negative = inhibition) at 10uM” value stood at 18.3%.
With `Cc1ccc(-c2nnn(CC(=O)Nc3nnc(C(C)C)s3)n2)cc1`, the “hERG current change (%, negative = inhibition) at 10uM” value is recorded as 19.7%.
`Cc1ccc(C)c(OCC(=O)Nc2nonc2NC(=O)COc2cc(C)ccc2C)c1`: the “hERG current change (%, negative = inhibition) at 10uM” value is listed as -25.1%.
As for `Cc1noc(C)c1COc1ccc(C(=O)OC(C)C(=O)Nc2ccc(N3CCOCC3)cc2)cc1` (centres unmarked), the “hERG current change (%, negative = inhibition) at 10uM” value came out at 4.54%.
Take `COc1cc(NC(=O)CCNS(=O)(=O)c2cc(Br)cnc2N)cc(OC)c1`: the “hERG current change (%, negative = inhibition) at 10uM” value is given as 15.1%.
Turning to `Cc1ccc(C(=O)Cc2cc3ccccc3oc2=O)c(C)c1`, the “hERG current change (%, negative = inhibition) at 10uM” value is on record as 16.3%.
As for `O=C(COC(=O)CCC(=O)c1cccs1)NC(=O)c1ccc(OC(F)F)cc1`, the “hERG current change (%, negative = inhibition) at 10uM” value is -4.17%.
The value for `Cc1c(/C=N/NC(=O)c2cccnc2)cc(C#N)n1C` was 23.2%.
In the case of `O=C(COC(=O)c1cnccn1)Nc1ccc(Cl)cc1C(F)(F)F`, the “hERG current change (%, negative = inhibition) at 10uM” value is 0.684%.
In the case of `CCNC(=O)CN(C1CCCCC1)S(=O)(=O)c1ccc(F)cc1` it was -0.0524%; in that of `COc1ccc(CCNc2oc(COc3ccccc3F)nc2C#N)cc1`, -13.4%.
Turning to `c1cncc(-c2nc3ccccc3s2)c1`, the “hERG current change (%, negative = inhibition) at 10uM” value came to 2.39%.
In the case of `Cc1cc(C)c(S(=O)(=O)/N=C2\C=C(Nc3ccc(C(=O)O)cc3)C(=O)c3ccccc32)c(C)c1` it was 3%.
On to `CN(N)C(=S)NCc1ccccc1`, for which the “hERG current change (%, negative = inhibition) at 10uM” value stood at 6.05%.
In the case of `CSCCC(NC(=O)c1ccccc1)C(=O)N1CCN(C(C)=O)CC1` (centres unmarked) it was 13.5%; in that of `COc1ccc(CCNCc2ccc(OCc3ccc(Cl)nc3)c(OC)c2)cc1OC.Cl`, -63.3%; in that of `COc1ccc2[nH]c3c(c2c1)CCN1C(=O)N([C@@H](C)C(=O)NCc2ccc(C)cc2)C(=O)[C@]31C`, 9.26%.
For `Cc1csc(NC(=O)CSc2nnc(CCNC(=O)c3cccs3)n2C)n1`, the “hERG current change (%, negative = inhibition) at 10uM” value came to 8.1%.
With `Cc1ccc(NC(=O)c2cccc3c2-c2ccccc2C3=O)cc1C`, the “hERG current change (%, negative = inhibition) at 10uM” value is reported as -9.58%.
Turning to `Cc1cc(C)nc(NS(=O)(=O)c2ccc(NC(=O)c3cccc(N4C(=O)CCC4=O)c3)cc2)n1`, the “hERG current change (%, negative = inhibition) at 10uM” value was -1.75%.
Consider `CC(=O)Nc1cccc(NC(=O)CSc2nc(C)c(C)c(C)c2C#N)c1`, for which the “hERG current change (%, negative = inhibition) at 10uM” value was -3.48%.
In the case of `O=C(CSc1nc2[nH]ncc2c(=O)[nH]1)Nc1cccc([N+](=O)[O-])c1` it was -19.2%; in that of `O=C(NC(Cc1ccccc1)C(=O)O)/C(=C\c1ccco1)NC(=O)c1ccccc1Br` (centres unmarked), 9.89%; in that of `Cc1ccc(S(=O)(=O)N2CCOCC2)cc1C(=O)O`, 11.5%.
As to `CCN(CC)S(=O)(=O)c1ccc(OCC(=O)NCc2ccccc2)cc1`, the “hERG current change (%, negative = inhibition) at 10uM” value is given as -14.2%.
Take `CSc1nsc(SC)c1NC(=O)OCCc1ccccn1`: the “hERG current change (%, negative = inhibition) at 10uM” value is given as -6.18%.
Turning to `CCOC(=O)c1nn(-c2ccc3c(c2)CCN3C(C)=O)cc1O`, the “hERG current change (%, negative = inhibition) at 10uM” value is -14.5%.
In the case of `COC(=O)C1=C(CSc2nccn2C)NC(=O)NC1c1cc(C)ccc1C` (centres unmarked) it was 6.72%.
As for `C=CCc1ccc(OCC(O)CN2CCN(Cc3ccc(Cl)cc3)CC2)c(OC)c1.Cl` (centres unmarked), the “hERG current change (%, negative = inhibition) at 10uM” value is given as -75.7%.
Regarding `N#CC1=C(N)Oc2n[nH]c(-c3cccs3)c2C1c1ccccc1C(=O)O` (centres unmarked), the “hERG current change (%, negative = inhibition) at 10uM” value turned out to be 11%.
With `CCc1ccc(OCC(=O)NNC(=O)C2CCN(c3ncnc4sc(C)c(C)c34)CC2)cc1`, the “hERG current change (%, negative = inhibition) at 10uM” value was -45.3%.
As for `Cc1ccc(C(C(=O)NCc2ccc(F)cc2)N(C(=O)c2csnn2)C2CC2)o1` (centres unmarked), the “hERG current change (%, negative = inhibition) at 10uM” value is listed as -56.7%.
As for `O=C(Nc1ccc(C(=O)N2CCOCC2)cc1)c1cc(-c2cccnc2)nc2ccc(Br)cc12`, the “hERG current change (%, negative = inhibition) at 10uM” value is listed as -0.666%.
The value for `COCCn1c(Cc2cccn2C)nnc1SCC(=O)NCc1ccc2c(c1)OCO2` was 2.16%; that for `Cn1c(=S)c2[nH]c(SCCN3CCCC3)nc2n(C)c1=O` was 10.5%.
With `COc1cc(OC)cc(C(=O)N2CCC(N3CCCCCC3)CC2)c1`, the “hERG current change (%, negative = inhibition) at 10uM” value was -5.77%.
For `O=C(NCCN1C(=O)C2C3C=CC(C3)C2C1=O)NCc1ccccc1` (centres unmarked), the “hERG current change (%, negative = inhibition) at 10uM” value was found to be 13.8%.
In the case of `COc1cc(NC(=O)CN(c2cc(C)cc(C)c2)S(=O)(=O)c2c(C)[nH]c(=O)[nH]c2=O)cc(OC)c1`, the “hERG current change (%, negative = inhibition) at 10uM” value was -27.8%.
`O=C(Cc1cccc(F)c1)Nc1ccc2c(c1)CCC2`: the “hERG current change (%, negative = inhibition) at 10uM” value was 30.3%.
With `COc1ccc(-c2cc(C(=O)Nc3cc(Cl)ccc3OC)no2)cc1`, the “hERG current change (%, negative = inhibition) at 10uM” value was determined as 33.9%.
On to `O=S(=O)(Nc1cccnc1Cl)c1ccc2c(c1)OCCO2`, for which the “hERG current change (%, negative = inhibition) at 10uM” value was found to be 15.4%.
Regarding `CC(C)C(=O)Nc1ccccc1C(=O)OCC(=O)c1ccc2c(c1)OCCO2`, the “hERG current change (%, negative = inhibition) at 10uM” value was -10.4%.
For `COc1ccc(C(=O)OC2CC3CCC(C2)[N+]3(C)[O-])cc1OC` (centres unmarked), the “hERG current change (%, negative = inhibition) at 10uM” value stood at 4.43%.
In the case of `C=CCN(c1ccccc1C(=O)O)S(=O)(=O)c1ccc(NC(=O)OC)cc1` it was 4.39%; in that of `Cc1ccc(C)c(N2CCN(C(=O)c3cccn4c(=O)c5sccc5nc34)CC2)c1`, -44.1%.
In the case of `CN=CC1=C(O)CC(C)(C)CC1=O` it was 11.5%.
In the case of `Cc1ccc(N(C(=O)CCCC(=O)Nc2ccccn2)C(C(=O)NC2CCCC2)c2ccc(O)cc2)cc1C` (centres unmarked) it was -1.32%; in that of `CCOc1ccc(N=Nc2c(C)[nH]n(-c3ccccc3)c2=O)cc1`, 18.6%.
For `O=C(COc1ccc2c(c1)CCC2)NCc1ccccc1`, the “hERG current change (%, negative = inhibition) at 10uM” value is listed as 1.82%.
